In all, about 73,000 compounds went through this assay and about 1,800 (2.5%) were called active. Inconclusive means that the source gave no clear call. Such entries were picked first, then a sample of the others. Calls come from the whole dose curve; as a rule, active = well fitted activation curve with a large enough effect; inconclusive = small, poorly fitted or top-dose-only effect; inactive = no such curve, though single readings can be large or run the other way. Potencies of inconclusive entries are left out as doubtful fits.
Assay: qHTS Assay for Agonists of the Thyroid Stimulating Hormone Receptor: Activators of Intracellular cAMP Concentrations in Parental HEK 293; note: nearly all actives have a fitted effect of over 55% in size; for activation: % of control where 0% means no effect
Settings: parental HEK293 CNG cAMP sensor, membrane potential fluorescence; activation: at 57.1 µM (top of the series) unless noted
Method in brief: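 Parental HEK 293 cells stably expressing a modified CNG channel (no TSHR) report cAMP rise as membrane depolarization. Membrane potential dye with 100 uM RO 20-1724 was loaded for 60 min at room temperature, then compound added for 30 min; fluorescence read at 590 nm.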
In the case of CCCCOC(=O)COc1ccc(Cl)cc1Cl, the activation is reported as inconclusive: 35.9% [activator].
For Cn1c(=O)c2c(SCC(=O)NCc3ccco3)nc(CC(C)(C)C)nc2n(C)c1=O, the Potency was inconclusive [activator, partial curve].
For Cc1ccc(-n2c(SCC(=O)OC(C)C)nnc2-c2ccco2)cc1, the Potency was inconclusive [activator, partial curve].
For COC(=O)NC(/C(C(=O)OC)=C(\C)NCc1ccccc1)c1cccs1 (stereo unspecified), the Potency was inconclusive [activator, partial curve].
With CC(C)Cn1c(SCC(=O)c2ccc(Cl)s2)nnc1-c1ccco1 the Potency was active: 20 µM.
With O=C(c1ccco1)[C@@H]1[C@@H]2C(=O)N(c3ccc(Br)cc3)C(=O)[C@@H]2C2c3ccccc3C=CN21 (stereo partly specified) the Potency was “inactive”.
In the case of COc1ccc(-c2nc3cnc(N4CCNCC4)nc3n(C3CC3)c2=O)cc1, the Potency is reported as inconclusive [activator, full curve, poor fit].
For COc1ccc(C(=O)N2CCC3(CC2)CCN(c2cccc(-c4ccccc4)c2)CC3)cc1, the Potency was inconclusive [activator, single point].
With CCc1c(C)sc(NC(=O)OC)c1C(=O)N1CCCCC1 the Potency was inconclusive [activator, single point].
In the case of NCCC(=O)N[C@@H](Cc1cnc[nH]1)C(=O)O, the Potency is reported as “inactive”.
With COc1ccc(-c2nc3cnc(OC)nc3n(CCc3ccccc3)c2=O)cc1 the Potency was inconclusive [activator, single point].
With CCOC(=O)c1oc2ccccc2c1CN1CCOCC1 the Potency was inconclusive [activator, single point].
For CCc1ccc2oc(-c3cc(N)ccc3O)nc2c1, the Potency was “inactive”.
With Cc1nc2ncnn2c(Nc2ccc3c(c2)OCO3)c1Cc1ccccc1 the Potency was active: 25.1 µM.
For O=C(c1ccco1)N1CCN(C(=O)c2cc3sccc3n2Cc2ccccc2)CC1, the Potency was inconclusive [activator, single point].
With COCCN(CC(=O)NC1CCCCC1)C(=O)CSc1nc2ccccc2o1 the Potency was inconclusive [activator, single point].
In the case of CCOC(=O)c1sc(NC(=O)c2ccc(S(=O)(=O)N3CCOCC3)cc2)cc1C, the Potency is reported as “inactive”.
For O=C(C1CC1)N1CCc2cc(Br)cc(S(=O)(=O)NCC3COc4ccccc4O3)c21 (stereo unspecified), the Potency was active: 15.8 µM.
In the case of Cc1cc(Br)ccc1SCC(=O)OCC(=O)N1CCN(C(=O)c2ccco2)CC1, the Potency is reported as inconclusive [activator, partial curve].
In the case of CC1CCCCC1NC(=O)C1Cc2ccccc2CN1S(C)(=O)=O (stereo unspecified), the Potency is reported as inconclusive [activator, full curve, poor fit].
With CC1(O)C(=O)C=C2C=C3CCCN3C=C2C1=O (stereo unspecified) the activation was inactive: -0.436% [at 11.4 µM].
For N#CC(C(=O)NCCc1ccccc1)c1nc2ccccc2nc1N1CCCCC1 (stereo unspecified), the Potency was “inactive”.
With CCCCN(C)C(=O)C1CCN(CCCc2ccccc2)CC1 the Potency was inconclusive [activator, partial curve].
With O=C1C=CC2(OCCCO2)C(Br)=C1 the activation was inactive: -2.9% [at 11.4 µM].
For C=CCn1c(-c2ccc(OC)cc2)nc2ccccc21, the Potency was inconclusive [activator, single point].
With CC(C)OC(=O)NCCOC(=O)Nc1cccc(Cl)c1 the Potency was inconclusive [activator, partial curve].
With C[C@@]12C[C@H](O)[C@@H]3[C@H](CCC4=CC(=O)CC[C@]43C)[C@H]1CC[C@@H]2c1csc(-c2ccccc2)n1 the activation was inactive: -5.34% [at 11.4 µM].
In the case of COc1ccc2oc(C(=O)OCC(=O)c3ccc4c(c3)OCCO4)c(C)c2c1, the Potency is reported as active: 20 µM.
For COc1ccccc1NC(=O)N1CCN(c2ccccn2)CC1, the Potency was inconclusive [activator, single point].
For COC(=O)c1ccccc1NC(=O)COC(=O)c1ccc(C)c(NC(=O)c2ccco2)c1, the Potency was inconclusive [activator, partial curve].
For CC1CCCCC1NC(=O)CSc1nc2ccccc2c(=O)n1Cc1ccco1 (stereo unspecified), the Potency was inconclusive [activator, full curve].
With Cc1ccc(N)cc1O the Potency was “inactive”.
With Cc1nc2cnc(N(C)C)nc2n(CCC#N)c1=O the Potency was “inactive”.
With Cc1nc2ccccc2nc1OCC(=O)Nc1cc(C(F)(F)F)ccc1N1CCOCC1 the Potency was inconclusive [activator, full curve].
With Cc1cc(=O)oc2cc(OC(C)C(=O)N3CCCc4ccccc43)ccc12 (stereo unspecified) the Potency was active: 25.1 µM.
For CCOC(=O)c1sc(NC(=O)CSc2n[nH]c(-c3ccccc3)n2)c(C#N)c1C, the Potency was inconclusive [activator, single point].
In the case of CN(Cc1ccccc1)Cc1nc2c(c(=O)n(C)c(=O)n2C)n1CCCc1ccccc1, the Potency is reported as inconclusive [activator, partial curve].
For Cc1nn(Cc2ccc(Cl)cc2)c(C)c1NC(=O)c1noc2c1CCCCC2, the Potency was inconclusive [activator, single point].
With CCC(C)(C)NC(=O)C(c1cccn1C)N(Cc1ccc(C)cc1)C(=O)Cn1nnc2ccccc21 (stereo unspecified) the Potency was active: 15.8 µM.
For CCOC(=O)C1CCN(c2cc(C)nc3cc(-c4cccc(F)c4)nn23)CC1, the Potency was inconclusive [activator, partial curve].
For NNS(=O)(=O)c1cc(C(=O)O)cc(C(=O)O)c1, the activation was inactive: 3.28% [at 11.4 µM].
With CCc1ccc(NC(=O)Nc2cccs2)cc1 the Potency was “inactive”.
In the case of CC1CC(C)(C)NC(=S)S1 (stereo unspecified), the Potency is reported as “inactive”.
In the case of COc1ccc2c(c1OC)C(=O)N(c1cccc(C(F)(F)F)c1)C2, the Potency is reported as inconclusive [activator, partial curve].
In the case of FC(F)(F)C12CC(c3ccccc3)=NCCN1CCN2 (stereo unspecified), the Potency is reported as inconclusive [activator, single point].
With CCN(C1CCCCC1)S(=O)(=O)c1ccc(S(=O)(=O)NCc2ccncc2)cc1 the Potency was inconclusive [activator, partial curve].
In the case of C=CCn1c(COc2ccc(Cl)cc2)nnc1SCc1ccc(C#N)cc1, the Potency is reported as inconclusive [activator, partial curve].
For CN1CCN(c2ncc3nc(-c4cc(F)cc(F)c4)c(=O)n(C4CC4)c3n2)CC1, the Potency was “inactive”.
With Cc1ccc(Cl)cc1NC(=O)CC(O)(C(F)(F)F)C(F)(F)F the Potency was active: 6.31 µM.
For O=C(Nc1ccc2nc(-c3cccs3)[nH]c2c1)c1cccs1, the Potency was “inactive”.
In the case of O=C1[C@H]2[C@H]3[C@H](O)[C@H](O)C/C(=N/OC[C@@H](O)COCc4ccco4)[C@H]3CC[C@@H]2C(=O)N1Cc1ccccc1, the activation is reported as inactive: -0.878% [at 11.4 µM].
In the case of O=c1nc2n(c3c1oc1ccccc13)Cc1ccccc1-2, the Potency is reported as “inactive”.
In the case of O=C(Nc1ccc2oc(-c3ccccc3F)nc2c1)c1ccc2c(c1)OCCO2, the Potency is reported as “inactive”.
With COc1ccc(-c2csc(N(CC3CCCO3)C(=O)c3cccs3)n2)cc1 (stereo unspecified) the Potency was active: 15.8 µM.
In the case of CCOc1ccc(Nc2cc(C)nc(-n3nc(C)cc3C)n2)cc1, the Potency is reported as inconclusive [activator, partial curve].
For O=C(Nc1ccc(F)c(Cl)c1)c1ccc2c(=O)n3c(nc2c1)CCCCC3, the Potency was inconclusive [activator, single point].
For CC(C)N(CCC(=O)c1ccc2ccccc2c1)Cc1ccccc1, the Potency was “inactive”.
For CCOC(=O)C1CCN(C(c2cccs2)c2sc3nc(C)nn3c2O)CC1 (stereo unspecified), the Potency was “inactive”.
In the case of O=C(Nc1ccc(O)cc1)C1CC=CCC1 (stereo unspecified), the Potency is reported as “inactive”.
In the case of O=c1c(-c2cc(F)cc(F)c2)nc2cnc(N3CCNCC3)nc2n1Cc1ccc(F)cc1, the Potency is reported as “inactive”.
With CC(Cc1ccccc1)C(=O)NCCc1c[nH]c2ccccc12 (stereo unspecified) the Potency was active: 12.6 µM.
With CCOc1ccc(S(=O)(=O)NCCCN2CCOCC2)c2ccccc12 the Potency was inconclusive [activator, partial curve].
With O=C(Nc1ccccc1)N1CCC(c2ccccc2)C1 (stereo unspecified) the Potency was “inactive”.
For CC1CCCCC1NC(=O)Cn1ncc2ccccc21 (stereo unspecified), the Potency was inconclusive [activator, partial curve].
With CCCn1c(SCC(=O)N2CCN(c3ccccc3)CC2)nc2ccccc2c1=O the Potency was “inactive”.
With O=C1C=CC(=Nc2cccc3c(N=C4C=CC(=O)O4)cccc23)O1 the activation was inactive: 2.51% [at 11.4 µM].
With CCOC(=O)Nc1ccc(S(=O)(=O)NCc2ccccc2)cc1 the Potency was inconclusive [activator, single point].
With CCc1nc(-c2ccccc2O)n(-c2ccccc2)n1 the Potency was inconclusive [activator, single point].
In the case of O=c1c(-c2cccc(Cl)c2)nc2cncnc2n1Cc1ccccc1Cl, the Potency is reported as inconclusive [activator, single point].
In the case of O=C(Nc1ccc(Cl)cc1)Nc1ccc(N2CCOCC2)cc1, the Potency is reported as “inactive”.
In the case of CCN1CCN(CC(=O)n2c3c(c4ccccc42)CC(C)CC3)CC1 (stereo unspecified), the Potency is reported as inconclusive [activator, partial curve, poor fit].
For CCC(=O)Nc1nonc1-c1nc2ccccc2n1Cc1ccccc1, the Potency was active: 20 µM.
For C[N@@+]1(CC[N@@+]2(C)CCC[C@H]2c2cccnc2)CCC[C@@H]1c1cccnc1, the activation was inactive: 11.1% [at 11.4 µM].
For Cc1ccc(-c2nnc(CSc3nnc(COc4ccccc4)n3-c3ccc(C)cc3)o2)cc1, the Potency was active: 25.1 µM.
With O=C(c1ccc2c(c1)OCO2)N1CCCC(c2ccccc2)C1 (stereo unspecified) the Potency was active: 10 µM.
With CC(=O)Oc1c2occc2cc2ccc(=O)oc12 the Potency was “inactive”.

Source: PubChem BioAssay AID938 (National Center for Advancing Translational Sciences (NCATS), 2007)
Potency is the fitted concentration of half-maximal effect; tags give direction and shape of the fitted curve.
